# Source: the supplement of paper PMC8728848
# Some of the results follow.
# How the values were obtained:
# Assay in all cases: glycan array binding signal (z-score within array); higher = stronger binding
# Details in all cases: glycan notation: IUPAC condensed, linker removed
# [1] = target: Fuc(a1-2)[Gal(a1-3)]Gal(b1-4)GlcNAc(b1-2)Man(a1-3)[Fuc(a1-2)[Gal(a1-3)]Gal(b1-4)GlcNAc(b1-2)Man(a1-6)]Man(b1-4)GlcNAc(b1-4)GlcNAc
# Procedure, shortened: (§1)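 Negative Z-scores can be read as non-binding. The Z-score is calculated within each array and then averaged across arrays of one protein sequence at different concentrations or buffers and across linkers. Arrays, 3228 in all, were curated from the Consortium for Functional Glycomics database and kept only where the protein sequence was available.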
# [2] = target: Fuc(a1-2)[Gal(a1-3)]Gal(b1-4)[Fuc(a1-3)]GlcNAc
# Procedure, shortened: as §1
# [3] = target: Fuc(a1-2)[Gal(a1-4)]Gal(b1-4)GlcNAc
# Procedure, shortened: as §1
# [4] = target: Fuc(a1-2)[GalNAc(a1-3)]Gal
# Procedure, shortened: as §1
# [5] = target: Fuc(a1-2)[GalNAc(a1-3)]Gal(b1-3)GlcNAc
# Procedure, shortened: as §1
# [6] = target: Fuc(a1-2)[GalNAc(a1-3)]Gal(b1-3)GlcNAc(b1-2)Man(a1-3)[Fuc(a1-2)[GalNAc(a1-3)]Gal(b1-3)GlcNAc(b1-2)Man(a1-6)]Man(b1-4)GlcNAc(b1-4)GlcNAc
# Procedure, shortened: as §1
# [7] = target: Fuc(a1-2)[GalNAc(a1-3)]Gal(b1-4)Glc
# Procedure, shortened: as §1
# [8] = target: Fuc(a1-2)[GalNAc(a1-3)]Gal(b1-4)GlcNAc
# Procedure, shortened: as §1
# [9] = target: Fuc(a1-2)[GalNAc(a1-3)]Gal(b1-4)GlcNAc(b1-2)Man(a1-3)[GalNAc(a1-3)[Fuc(a1-2)]Gal(b1-4)GlcNAc(b1-2)Man(a1-6)]Man(b1-4)GlcNAc(b1-4)GlcNAc
# Procedure, shortened: as §1
# [10] = target: Fuc(a1-2)[GalNAc(a1-3)]Gal(b1-4)GlcNAc(b1-3)Gal(b1-4)GlcNAc
# Procedure, shortened: as §1
# [11] = target: Fuc(a1-2)[GalNAc(a1-3)]Gal(b1-4)GlcNAc(b1-3)Gal(b1-4)GlcNAc(b1-3)Gal(b1-4)GlcNAc
# Procedure, shortened: as §1
# [12] = target: Fuc(a1-2)[GalNAc(a1-3)]Gal(b1-4)[Fuc(a1-3)]GlcNAc
# Procedure, shortened: as §1
# [13] = target: Fuc(a1-2)[GalNAc(a1-4)]Gal(b1-4)GlcNAc
# Procedure, shortened: as §1
# [14] = target: Fuc(a1-2)[GalNAc(b1-3)]Gal
# Procedure, shortened: as §1
# [15] = target: Fuc(a1-3)GlcNAc
# Procedure, shortened: as §1
# [16] = target: Fuc(a1-3)[Gal(b1-4)]Glc6S
# Procedure, shortened: as §1
# [17] = target: Fuc(a1-3)[Gal(b1-4)]GlcNAc
# Procedure, shortened: as §1
# [18] = target: Fuc(a1-3)[Gal(b1-4)]GlcNAc(b1-2)Man(a1-3)[Fuc(a1-3)[Gal(b1-4)]GlcNAc(b1-2)Man(a1-6)]Man(b1-4)GlcNAc(b1-4)GlcNAc
# Procedure, shortened: as §1
# [19] = target: Fuc(a1-3)[Gal(b1-4)]GlcNAc(b1-2)Man(a1-6)[Gal(b1-4)GlcNAc(b1-2)Man(a1-3)]Man(b1-4)GlcNAc(b1-4)GlcNAc
# Procedure, shortened: as §1
# [20] = target: Fuc(a1-3)[Gal(b1-4)]GlcNAc(b1-3)Gal(b1-3)[Fuc(a1-4)]GlcNAc
# Procedure, shortened: as §1
# [21] = target: Fuc(a1-3)[Gal(b1-4)]GlcNAc(b1-4)Gal(b1-4)[Fuc(a1-3)]GlcNAc
# Procedure, shortened: as §1
# [22] = target: Fuc(a1-3)[Gal(b1-4)]GlcNAc(b1-4)Gal(b1-4)[Fuc(a1-3)]GlcNAc(b1-4)Gal(b1-4)[Fuc(a1-3)]GlcNAc
# Procedure, shortened: as §1
# [23] = target: Fuc(a1-3)[Gal(b1-4)]GlcNAc6S
# Procedure, shortened: as §1
# [24] = target: Fuc(a1-3)[Gal3S(b1-4)]Glc6S
# Procedure, shortened: as §1
# [25] = target: Fuc(a1-3)[Gal3S(b1-4)]GlcNAc
# Procedure, shortened: as §1
# [26] = target: Fuc(a1-3)[Gal3S(b1-4)]GlcNAc6S
# Procedure, shortened: as §1
# [27] = target: Fuc(a1-3)[GalNAc(b1-4)]GlcNAc
# Procedure, shortened: as §1
# [28] = target: Fuc(a1-4)GlcNAc
# Procedure, shortened: as §1
# [29] = target: Fuc(b1-3)GlcNAc
# Procedure, shortened: as §1
# [30] = target: Gal(a1-2)Gal
# Procedure, shortened: as §1
# [31] = target: Gal(a1-3)Gal
# Procedure, shortened: as §1
# [32] = target: Gal(a1-3)Gal(b1-3)GlcNAc
# Procedure, shortened: as §1
# [33] = target: Gal(a1-3)Gal(b1-4)Glc
# Procedure, shortened: as §1
# [34] = target: Gal(a1-3)Gal(b1-4)GlcNAc
# Procedure, shortened: as §1
# [35] = target: Gal(a1-3)Gal(b1-4)[Fuc(a1-3)]GlcNAc
# Procedure, shortened: as §1
# [36] = target: Gal(a1-3)Gal(b1-4)[Fuc(a1-3)]GlcNAc(b1-2)Man(a1-3)[Gal(a1-3)Gal(b1-4)[Fuc(a1-3)]GlcNAc(b1-2)Man(a1-6)]Man(b1-4)GlcNAc(b1-4)GlcNAc
# Procedure, shortened: as §1
# [37] = target: Gal(a1-3)GalNAc
# Procedure, shortened: as §1
# [38] = target: Gal(a1-3)[Gal(a1-4)]Gal(b1-4)GlcNAc
# Procedure, shortened: as §1
# [39] = target: Gal(a1-4)Gal(b1-4)Glc
# Procedure, shortened: as §1
# [40] = target: Gal(a1-4)Gal(b1-4)GlcNAc
# Procedure, shortened: as §1
# [41] = target: Gal(a1-4)Gal(b1-4)GlcNAc(b1-3)Gal(b1-4)Glc
# Procedure, shortened: as §1
# [42] = target: Gal(a1-4)GlcNAc
# Procedure, shortened: as §1
# [43] = target: Gal(a1-6)Glc
# Procedure, shortened: as §1
# [44] = target: Gal(b1-2)Gal
# Procedure, shortened: as §1
# [45] = target: Gal(b1-3)Gal
# Procedure, shortened: as §1
binder,measurement,setting,value
"GIINTLQKYYCRVRGGRCAVLSCLPKEEQIGKCSTRGRKCCRRKK [Beta-Defensin 3 (Homo sapiens), P81534]",glycan array binding signal (z-score),[1],-0.582
same,glycan array binding signal (z-score),[2],0.22
same,glycan array binding signal (z-score),[3],-0.449
same,glycan array binding signal (z-score),[4],-0.321
same,glycan array binding signal (z-score),[5],-0.489
same,glycan array binding signal (z-score),[6],-0.167
same,glycan array binding signal (z-score),[7],-0.57
same,glycan array binding signal (z-score),[8],-0.435
same,glycan array binding signal (z-score),[9],-0.567
same,glycan array binding signal (z-score),[10],2.16
same,glycan array binding signal (z-score),[11],1.43
same,glycan array binding signal (z-score),[12],-0.366
same,glycan array binding signal (z-score),[13],-0.592
same,glycan array binding signal (z-score),[14],-0.299
same,glycan array binding signal (z-score),[15],-0.384
same,glycan array binding signal (z-score),[16],0.966
same,glycan array binding signal (z-score),[17],-0.229
same,glycan array binding signal (z-score),[18],-0.32
same,glycan array binding signal (z-score),[19],-0.789
same,glycan array binding signal (z-score),[20],-0.468
same,glycan array binding signal (z-score),[21],-0.259
same,glycan array binding signal (z-score),[22],-0.422
same,glycan array binding signal (z-score),[23],1.84
same,glycan array binding signal (z-score),[24],3.57
same,glycan array binding signal (z-score),[25],0.117
same,glycan array binding signal (z-score),[26],8.21
same,glycan array binding signal (z-score),[27],-0.467
same,glycan array binding signal (z-score),[28],-0.369
same,glycan array binding signal (z-score),[29],-0.47
same,glycan array binding signal (z-score),[30],0.457
same,glycan array binding signal (z-score),[31],0.608
same,glycan array binding signal (z-score),[32],-0.477
same,glycan array binding signal (z-score),[33],-0.491
same,glycan array binding signal (z-score),[34],-0.238
same,glycan array binding signal (z-score),[35],-0.233
same,glycan array binding signal (z-score),[36],-0.694
same,glycan array binding signal (z-score),[37],0.1
same,glycan array binding signal (z-score),[38],-0.427
same,glycan array binding signal (z-score),[39],-0.018
same,glycan array binding signal (z-score),[40],-0.265
same,glycan array binding signal (z-score),[41],0.228
same,glycan array binding signal (z-score),[42],-0.126
same,glycan array binding signal (z-score),[43],0.163
same,glycan array binding signal (z-score),[44],0.102
same,glycan array binding signal (z-score),[45],0.134
